Out of some 150,000 compounds screened, about 540 (0.36%) showed an effect of 50% or more. The list shows a part of the results.

This assay has as its system Plasmodium falciparum. In words: Primary screen in NF54 nanoGlo assay, in single point, at 2uM, 72h; a lower Z score goes with more inhibition. It counts as functional, Erythrocyte. The settings on record: timepoint 72 hour.
Consider `COc1cccc2c1OCc1cn(nn1)[C@H]1CN(C(=O)Cc3ccc4c(c3)OCO4)C[C@H]1CC(=O)NCCN(C)C2=O`, for which the % Inhibition (commonly the change of the read-out against control, counted positive when it falls) is listed as -13% and the Z score was 1.42.
The matching figures for `CCC=CCCn1ccc(C2(C)OCCO2)cc1=O`: -5% and 1.06.
As to `Cc1nc(N2Cc3cnc(CC(C)C)nc3C2)no1`, the “% Inhibition” value is -5% and the Z score was 0.48.
With `Nc1nc(NCCO)cc(-c2ccc(OCc3ccccc3)nc2)n1`, the “% Inhibition” value was 2% and the Z score is reported as -0.42.
Consider `COc1cccc(CNS(=O)(=O)c2ccc(-c3onc(C)c3C)s2)c1`, for which the “% Inhibition” value is -4% and the Z score stood at 0.36.
Regarding `CCNC(=O)N1CC(=O)N(CC2CC2)C1`, the “% Inhibition” value is -9% and the Z score stood at 1.57.
The matching figures for `CN(C(=O)c1cccc2cn[nH]c12)C1CCCCCC1`: 0% and 0.06.
Turning to `CC1CC(C)(C)CC(CO)(NC(=O)C2CCOC2C)C1` (stereo not drawn), the “% Inhibition” value is recorded as -11% and the Z score worked out at 1.07.
For `Cc1ccc(CC2CN(C(=O)Nc3nn(C4CCCCC4)cc3C)C2)cc1` the same measures were -14% and 2.7.
Turning to `CCc1nc2ccccc2c(N2CCO[C@H](c3nc(C)n[nH]3)C2)c1C`, the “% Inhibition” value is given as -15% and the Z score was 1.54.
The matching figures for `CCN(CC)C(=O)CN1CCCN(CC(=O)Nc2c(C#N)c(C)c(C)n2Cc2ccco2)CC1`: -7% and 1.31.
With `O=C(NC[C@H]1COc2ccccc2O1)C1CCN(S(=O)(=O)c2ccc3c(c2)CCC3)CC1`, the “% Inhibition” value was -3% and the Z score was determined as 0.39.
Turning to `O=C(NC[C@H]1Cn2ccnc2CO1)Nc1ccccc1`, the “% Inhibition” value is recorded as 26% and the Z score is on record as -2.95.
`CC1CCC(Oc2cc(CNS(=O)(=O)c3cnnn3C)ccn2)CC1` (stereo not drawn): the “% Inhibition” value is given as -4% and the Z score was 0.56.
The matching figures for `O=C(C1CCOC1)N1CCCC(NS(=O)(=O)c2ccccc2)C1` (stereo not drawn): 9% and -0.9.
Take `Cc1cc(N2CCN(c3c(N)c(C)nn3C)CC2)c(C#N)c(C)n1`: the “% Inhibition” value came out at 9% and the Z score is on record as -1.51.
`COc1cccc(NC(=O)N[C@H]2CCCS(=O)(=O)C2)c1`: the “% Inhibition” value was -6% and the Z score was found to be 1.
The matching figures for `Cc1n[nH]c(C(C)C)c1C(=O)N1CCCN(Cc2ccc(Cl)cc2)CC1`: -10% and 1.31.
For `Cc1ccc(OCC2(CS(C)(=O)=O)CC2)nc1` the same measures were -2% and 0.31.
For `CC(=Cc1ccccc1)CNCCn1cccn1` the same measures were 0% and 0.05.
`CC1(C)C2CCCN(C(=O)Cn3c(=O)cnc4ccccc43)C1C2` (stereo not drawn): the “% Inhibition” value was -20% and the Z score amounted to 2.66.
With `CCn1nccc1C(=O)N1CCC[C@@]2(CCC(=O)N(Cc3cnc(C)cn3)C2)C1`, the “% Inhibition” value is listed as -11% and the Z score amounted to 1.18.
For `Cc1ccc(N2CCCN(Cc3ccc(C)c(C)c3)C2=O)c(NC(=O)OCc2ccccc2)c1` the same measures were 18% and -2.21.
Consider `Brc1ccc2c(c1)C1(CCCC1)CN2Cc1nnc(C2CC2)o1`, for which the “% Inhibition” value worked out at 3% and the Z score is on record as -0.44.
The matching figures for `CN1CCN(C(=O)[C@H]2CC[C@@H](O)CC2)C[C@H]1c1ccccc1`: -13% and 2.56.
Turning to `O=C(Nc1cccc2ccccc12)c1cc(=O)[nH]c2ccccc12`, the “% Inhibition” value was -6% and the Z score is on record as 0.78.
For the molecule `Cc1c(C(=O)Nc2ccccc2C(N)=O)cccc1N(C)S(C)(=O)=O`, the “% Inhibition” value is on record as -6% and the Z score turned out to be 0.97.
Consider `CCn1ccnc1[C@H]1OCCC[C@@H]1C(=O)Nc1ccnn1Cc1ccc(C)cc1`, for which the “% Inhibition” value is -4% and the Z score was found to be 0.61.
In the case of `CCCC(=O)N1CCCN(S(=O)(=O)Cc2ccccc2)CC1`, the “% Inhibition” value came out at 1% and the Z score is reported as -0.09.
Turning to `CCN(C(=O)Cn1c(Nc2cccc(C)c2)nc(C)cc1=O)c1ccccc1`, the “% Inhibition” value is -15% and the Z score is 1.58.
The matching figures for `CCN(CC(=O)N1CCC2(CC1)CN(C(C)=O)[C@@H]1COC[C@@H]12)c1ccccc1`: -6% and 0.91.
As to `O=C1Nc2ccc(-c3ccccc3F)cc2C(=O)N2CCN(C(=O)c3ccc(C(F)(F)F)cc3)C[C@@H]12`, the “% Inhibition” value is on record as -12% and the Z score is on record as 2.22.
The matching figures for `OC(CN1CCCC(N2CCCCC2)C1)c1ccccc1` (stereo not drawn): 7% and -0.8.
For `C[C@@H](C(=O)NCc1cccs1)S(C)(=O)=O`, the “% Inhibition” value is listed as -2% and the Z score came out at 0.41.
The matching figures for `CN1C(=O)N[C@@H]2CN(Cc3ccc(F)cc3)CC[C@@H]21`: -10% and 1.68.
As to `COCCN1C(=O)C[C@H](C#N)[C@H]1c1cnn(C)c1C`, the “% Inhibition” value is given as 1% and the Z score is -0.15.
The matching figures for `CCc1nc(CNC(=O)Cc2c3c(n(C[C@H]4CCCO4)c2C)CCCC3=O)no1`: -16% and 2.38.
For `Cc1cccc(-n2cc(CN3C[C@@H]4CC[C@H]3CN(c3cnccn3)C4)cn2)c1`, the “% Inhibition” value is listed as -2% and the Z score is on record as 0.24.
For `C#C[C@H](C)OC(=O)c1ccc(Cl)cn1` the same measures were 2% and -0.31.
In the case of `NC(=O)N1CCCC(C(=O)OCC2CCCc3ccccc32)C1` (stereo not drawn), the “% Inhibition” value is recorded as -9% and the Z score was determined as 1.35.
For `CCc1cc(CN(CC)C[C@H](O)c2cccc(O)c2)on1`, the “% Inhibition” value was -16% and the Z score came to 2.
Turning to `C[C@H]1COC(C)(C)CN1C(=O)Nc1ccc(C2CC2)cn1`, the “% Inhibition” value is listed as -12% and the Z score came out at 2.17.
As for `Cc1cnc(C2CCN(c3ncc(Br)cc3C#N)CC2)s1`, the “% Inhibition” value is -11% and the Z score worked out at 1.74.
For `O=C1NC(=O)C2(CCN(c3nc(-c4cccnc4)nc4ccccc34)CC2)N1`, the “% Inhibition” value stood at 27% and the Z score is recorded as -3.57.
For `O=c1c2cc3c(=O)n(Cc4ccccc4)c(=O)c3cc2c(=O)n1Cc1ccccc1` the same measures were -6% and 1.21.
On to `Cc1ccc(NC(=O)c2coc(-c3ccccc3)n2)cc1N1C(=O)CNC1=O`, for which the “% Inhibition” value was -9% and the Z score was determined as 1.47.
For `O=C(CCn1cnc2cc(-c3noc(-c4ccccc4)n3)ccc21)N1CCCCCC1` the same measures were -17% and 2.21.
With `CC(C)Oc1cc(NC(c2cccs2)[C@H]2C[C@@H](O)C2)nc(N)n1` (stereo partly drawn), the “% Inhibition” value is on record as 7% and the Z score was -0.67.
As to `c1ccc([C@@H]2CCCCN2Cc2c[nH]cn2)cc1`, the “% Inhibition” value is -7% and the Z score is given as 0.69.
The matching figures for `CNC(=O)C(C)(C)CNC(=O)Nc1nc(C)nn1-c1ccccc1`: -11% and 1.23.
The matching figures for `CCN(CC)c1onc(-c2ccccc2)c1CN(CC1CC1)C(=O)c1ccc2c(c1)OCO2`: 7% and -1.43.
For the molecule `Cc1cc2cc(CN3C(=O)c4ccccc4[C@@H]3O)ccc2n1C`, the “% Inhibition” value came to 35% and the Z score is -3.94.
For `Cc1ccc(-c2nnc(-c3nn(C)c4c3CN(S(=O)(=O)c3c(C)n[nH]c3C)CC4)o2)cc1` the same measures were -2% and 0.14.
In the case of `Cc1ccccc1OCC(=O)N1CC[C@H](n2nccn2)C1`, the “% Inhibition” value was 2% and the Z score was -0.27.
For the molecule `Cc1cc(CS(=O)(=O)CCC2CC(C)CC(C)C2)on1` (stereo not drawn), the “% Inhibition” value was -4% and the Z score was found to be 0.8.
Take `Cc1cncc(CN2C(=O)CC3(CCC3)C2=O)c1`: the “% Inhibition” value is recorded as -8% and the Z score stood at 1.3.
For `CC[C@H](NC(=O)c1ncncc1Cl)c1ccccc1OC(F)F`, the “% Inhibition” value is on record as -4% and the Z score was 0.72.
`O=C(Nc1sc2c(c1C(=O)N1CCOCC1)CCCCC2)c1ccccc1Cl`: the “% Inhibition” value is -1% and the Z score is reported as 0.07.
For the molecule `CCCOCC(=O)N1CCN(Cc2cc(C)cc(C)c2)C(=O)C1`, the “% Inhibition” value was -7% and the Z score was 0.87.
The matching figures for `Cc1cc(C)c(CN2CCN(C)CC2)cc1CN(C)Cc1nc2ccc(F)cc2[nH]1`: -1% and 0.14.
The matching figures for `COc1ccccc1/C=C/CN1C[C@@H]2C[C@H]1C(=O)N2c1ccccc1Cl`: 7% and -0.96.
The matching figures for `Cc1nc([C@H](C)NS(=O)(=O)c2ccc(-c3c(C)noc3C)s2)n[nH]1`: 2% and -0.35.
For the molecule `Cc1nn(CC(=O)N(CC(F)(F)F)c2ccccn2)c(C)c1Cl`, the “% Inhibition” value is -6% and the Z score was 1.12.
In the case of `CCn1nc(CC(C)C)cc1C(=O)N1CCC(c2ccccc2OC)CC1`, the “% Inhibition” value came to 0% and the Z score is reported as -0.05.
Turning to `Cc1cc(=O)[nH]c(N2CCC[C@H](NC(=O)c3cccnc3C)C2)n1`, the “% Inhibition” value is given as -13% and the Z score is on record as 1.33.
In the case of `Cc1nc(CN(C)C(=O)C(=O)Nc2cc(C(F)(F)F)no2)cs1`, the “% Inhibition” value was -3% and the Z score stood at 0.41.
Take `CCC(=O)Nc1ccc2c(c1)c(=O)n(-c1ccccc1)n2CC(=O)Nc1cccc(OC)c1`: the “% Inhibition” value is -5% and the Z score is on record as 0.59.
On to `O=C1CN(c2cccc3ccccc23)C(=O)CN1c1cccc2ccccc12`, for which the “% Inhibition” value is listed as -3% and the Z score is given as 0.44.
Turning to `CC(C)c1nc(C2CCCCCN2C(=O)C2CCOC2C(C)C)no1` (stereo not drawn), the “% Inhibition” value is listed as -11% and the Z score was found to be 1.6.
The matching figures for `CC(C)C[C@H](C)N(C)C(=O)c1ccc(=O)n(C)c1`: -4% and 0.4.
As to `CCNC(=O)[C@H](C)Nc1nccc(OC)n1`, the “% Inhibition” value came out at 9% and the Z score is listed as -1.68.
The matching figures for `CCC(=O)N(C)c1nc2ccccc2n(CC(=O)Nc2ccc3c(c2)OCO3)c1=O`: 3% and -0.45.
With `CN1CC2(CN(C(=O)c3csc4ccccc34)C2)OC1=O`, the “% Inhibition” value was -2% and the Z score was 0.34.
For `Cn1ncc(NC(=O)Cn2ncc3cccnc32)n1` the same measures were -1% and 0.16.
For `COCCC(=O)Nc1cc(Cl)cc(Br)c1O` the same measures were -14% and 1.15.
`COc1ccccc1N1CC[C@H](C)N(Cc2cc(F)cc3c2OCOC3)CC1`: the “% Inhibition” value is reported as -3% and the Z score was determined as 0.43.
For `COCCN(CC1CC1)C(=O)c1ccc2[nH]c(CO)nc2c1` the same measures were 3% and -0.38.
In the case of `CN(C)CCn1ccnc1C1CCN(C(=O)c2cccc(N(C)C)c2)CC1`, the “% Inhibition” value turned out to be 7% and the Z score is reported as -0.84.
The matching figures for `O=C(CCn1ccnn1)N(c1ccccc1)C1CCCCC1`: -8% and 0.94.
Consider `CCOC(=O)C(=O)Nc1c2c(cn1-c1ccccc1)CS(=O)(=O)C2`, for which the “% Inhibition” value amounted to 9% and the Z score was -1.09.
Turning to `Nc1ncc(Br)c(-c2cnc(-c3ccc(F)cc3)s2)n1`, the “% Inhibition” value was -15% and the Z score turned out to be 2.21.
The matching figures for `Cc1cc(NCc2csc(C3CC3)n2)no1`: -11% and 1.08.
The matching figures for `CC(=O)N1CCC(COS(=O)(=O)c2ccc(C)cc2)CC1`: -4% and 0.68.
For `Fc1cc(Br)cc([C@H](CC2CC2)NCc2ncc[nH]2)c1` the same measures were -1% and 0.16.

The record behind these values is ChEMBL document CHEMBL4888484, “Replenishing the malaria drug discovery pipeline: Screening and hit evaluation of the MMV Hit Generation Library 1 (HGL1) against asexual blood stage Plasmodium falciparum ,using a nano luciferase reporter read-out” (2022).
